Laboratory results: PubChem BioAssay AID1347071 (National Center for Advancing Translational Sciences (NCATS), 2019)
The campaign covered roughly 410,000 compounds. About 260 (0.063%) were called active. Inconclusive results, whose numbers are uncertain, are shown with a selection of clear calls. Calls follow the shape of the dose curve; as a rule, active = well fitted activation curve with a large enough effect; inconclusive = small, poorly fitted or top-dose-only effect; inactive = no such curve, though single readings can be large or run the other way. Potencies of inconclusive entries are left out as doubtful fits.

Experiment: qHTS for compounds that reverse cellular toxicity of Amyloid beta (A-beta) peptide in yeast: Primary Screen; also: nearly all actives have a fitted effect of over 55% in size
Conditions: yeast expressing A-beta42, growth rescue, OD600, 48 h; growth rescue: at 46.1 µM (top of the series), 0% DMSO, 100% iron-clioquinol control
Procedure, shortened: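 Yeast growth medium received pinned compounds, then yeast cells expressing toxic A-beta were added; plates incubated at 30 C for 48 hr. Growth read as absorbance at 600 nm, normalized to DMSO and equimolar FeCl3 plus clioquinol controls.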
Potency is read from the fitted curve at half-maximal effect; tags tell the direction and shape of the fitted curve.

Compound	Potency	growth rescue
CC1CC(C)CN(C(=O)c2ccncc2)C1 (centres undefined)	inconclusive [activator, partial curve, poor fit]	–
NC1=C(O)C(=O)C(c2ccccc2)O1 (centres undefined)	inconclusive [activator, partial curve]	–
O=C(CNC(=O)c1ccc(Cl)cc1Cl)OCCOc1ccccc1	inconclusive [activator, partial curve, poor fit]	–
CC1=CC(C)(C)NC(=S)N1c1cccc(C)c1	inconclusive [activator, partial curve, poor fit]	–
CO[C@H]1C=CO[C@@]2(C)Oc3c(C)c(O)c4c(O)c(c(C=NN5CCN(C)CC5)c(O)c4c3C2=O)NC(=O)C(C)=CC=C[C@H](C)[C@H](O)[C@@H](C)[C@@H](O)[C@@H](C)[C@H](OC(C)=O)[C@@H]1C	inactive	–
O=C(O)CCc1nnc2cnc3ccccc3n12	inactive	–
COc1ccc(N/C(=N/c2nc(C)cc(C)n2)NC(=O)Nc2ccc(Cl)c(Cl)c2)c(OC)c1	inactive	–
Cc1ccccc1NC(=O)CCNC(=O)Cn1ccc2ccccc2c1=O	inactive	–
CC(NC(=O)c1cccc(F)c1)C1CC2CCC1C2 (centres undefined)	inconclusive [activator, partial curve, poor fit]	–
O=C(c1c[nH]c(C(=O)N2CCN(c3ccccc3F)CC2)c1)c1cccc(Cl)c1Cl	active: 3.16 µM	–
NS(=O)(=O)c1ccc(CNC(=O)c2ccc(Cl)c(S(=O)(=O)NCc3ccccc3)c2)cc1	inactive	–
C=CCNC(=S)N1CCN(c2ccccc2Cl)CC1	inconclusive [activator, single point]	–
Cc1nn(Cc2cccc(C(=O)Nc3ccn(Cc4ccccc4)n3)c2)c(C)c1[N+](=O)[O-]	inconclusive [activator, single point]	–
COc1ccc(O)c(/C=N/Nc2nc(Nc3ccccc3)nc(-n3nc(C)cc3C)n2)c1	inconclusive [activator, full curve, poor fit]	–
CCc1nn2c(=O)cc(COC(=O)C3CCCCC3)nc2s1	inactive	–
CCCn1nc(C(=O)NC2CC2)c2ccccc2c1=O	inactive	–
O=C(NNC(=O)c1ccc(SCC2CCCO2)c([N+](=O)[O-])c1)c1ccc(F)cc1 (centres undefined)	inconclusive [activator, partial curve, poor fit]	–
COc1ccc(-c2cc(OC(=O)c3cccc(C)c3)c3c(C)oc(C)c3c(=O)c2)cc1	inactive	–
NNC(=S)Nc1ccccc1Cl	inconclusive [activator, single point]	–
O=C(CSc1nc(-c2ccco2)cc(C(F)(F)F)n1)NCCc1ccccc1	inconclusive [activator, partial curve]	–
COc1ccc(CNC(=S)NCc2ccc(F)cc2)cc1	inconclusive [activator, single point]	–
O=C(CCCOC(=O)c1ccc(O)cc1)c1ccccc1	inconclusive [activator, full curve]	–

Compound	Potency	growth rescue
COc1ccc(-c2cccc(C(=O)Nc3ccc(C)cc3)c2)cc1	inconclusive [activator, partial curve, poor fit]	–
Fc1cccc(CSc2ccc3nnc(-c4cccnc4)n3n2)c1	inconclusive [activator, single point]	–
Cc1ccccc1NS(=O)(=O)c1ccc2[nH]c3c(c2c1)CCCCC3	inactive	–
CCCOC(=O)c1ccc(-c2ccc(C=O)o2)cc1	inactive	–
O=C(COC(=O)c1ccccc1Br)Nc1nnc(-c2ccccc2)o1	inconclusive [activator, partial curve, poor fit]	–
O=C(CC1SC(=O)N(c2ccccc2)C1=O)Nc1cccc2ccccc12 (centres undefined)	inconclusive [activator, full curve, poor fit]	–
CC(=O)c1cccc(NC(=O)C(C)n2c(=O)cc(-c3ccccc3)c3c(C)nn(C)c32)c1 (centres undefined)	inactive	–
O=c1c2ccccc2[nH]c(=S)n1CCC1=CCCCC1	inconclusive [activator, partial curve]	–
O=S(=O)(/N=C(/NC(=S)Nc1ccccc1)c1ccccc1)c1ccc(Cl)cc1	inconclusive [activator, single point]	–
CC(C)OCCCNC(=S)NNC(=O)C(c1ccccc1)c1ccccc1	inconclusive [activator, partial curve, poor fit]	–
CC(C(=O)NC(=O)NC1CCCCC1)N1CCN(C(c2ccccc2)c2ccccc2)CC1 (centres undefined)	inconclusive [activator, partial curve, poor fit]	–
Cc1ccc(C(=O)NCCSCc2ccc(Cl)cc2Cl)cc1[N+](=O)[O-]	inconclusive [activator, single point]	–
C#CCOCCOCCOCCNc1nc(N2CCN(C(=O)CCCCCCCCCCNC(=O)[C@H]([C@@H](C)CC)n3cc(CCCCCN)nn3)CC2)nc(N2CCN(C(=O)CCCCCCCCCCNC(=O)[C@H](CO)n3cc(CCCCCN)nn3)CC2)n1	inactive	–
O=C(Nc1nnc(-c2ccc3c(c2)CCCC3)o1)c1ccccc1	inconclusive [activator, full curve, poor fit]	–
Cc1ccccc1Cn1nc(C)c(NC(=O)c2cc(CC(C)C)on2)c1C	inconclusive [activator, partial curve, poor fit]	–
COCCn1c(-c2ccc(NC(C)=O)cc2)nc2c1c(=O)[nH]c(=O)n2CC(C)C	inconclusive [activator, single point]	–
Cc1ccc(Cn2ccnc2SCC(=O)Nc2ccccc2C(F)(F)F)cc1	inconclusive [activator, partial curve, poor fit]	–
CCC(C)C(=O)Nc1nnc(CCc2ccccc2)s1 (centres undefined)	inconclusive [activator, partial curve, poor fit]	–
Cc1cc(OCc2n[nH]c(=S)n2-c2ccccc2)ccc1Cl	inconclusive [activator, full curve, poor fit]	–
O=C(OCC(=O)c1ccc(Br)s1)c1ccc(O)cc1	inconclusive [activator, full curve, poor fit]	–
CN1/C(=C\C(=S)NC(=O)c2ccccc2Cl)C(C)(C)c2ccccc21	inconclusive [activator, single point]	–
CCc1ccc(CNC(=O)C2CCCN(S(=O)(=O)N3CC(C)CC(C)C3)C2)cc1 (centres undefined)	inconclusive [activator, partial curve, poor fit]	–

Compound	Potency	growth rescue
CCc1nnc(NC(=S)Nc2ccccc2)s1	inconclusive [activator, full curve, poor fit]	–
CC(C)Oc1ccc(Br)cc1/C=N\NC(N)=S	inconclusive [activator, partial curve, poor fit]	–
COc1ccccc1CNC(=S)NCc1ccc(F)cc1	inconclusive [activator, partial curve, poor fit]	–
Cc1ccc(NC(=S)c2nc3ccccc3[nH]2)c(C)c1	inconclusive [activator, partial curve, poor fit]	–
O=C(CN1CCCSc2ccccc21)N1CCN(S(=O)(=O)c2ccccc2)CC1	inconclusive [activator, full curve]	–
O=C(N/N=C\c1cc(Br)cs1)C1COc2ccccc2O1 (centres undefined)	inconclusive [activator, single point]	–
CCOc1ccccc1NC(=O)C(OC(=O)C1CC1)c1ccccc1 (centres undefined)	inconclusive [activator, single point]	–
Cc1cc(C)c(C(=O)COc2cccnc2[N+](=O)[O-])cc1C	inconclusive [activator, partial curve, poor fit]	–
CCOC(=O)c1ccc(NC(=S)NCc2ccco2)cc1	inconclusive [activator, single point]	–
CC(C)N(Cc1nc(-c2ccccc2)no1)C(=O)c1ccc(Cl)cc1	inconclusive [activator, single point]	–
COc1ccc(-c2cc(=O)oc3c4c(ccc23)OCN(Cc2cccc(OC)c2)C4)cc1	inactive	–
Cc1ccc(C)c(NC(=O)c2cc3ccccc3o2)c1	–	inconclusive: -37.9% [activator]
Cc1ccc(Nc2c(-c3ccccn3)nc3ccc(C)cn23)cc1	inconclusive [activator, partial curve]	–
COc1cc(NC(=S)NCc2cccs2)cc(OC)c1	inconclusive [activator, partial curve, poor fit]	–
COc1ccc(C(=O)NC(=S)NNC(=O)c2c(-c3ccccc3)noc2C)cc1OC	active: 11.2 µM	–
NC(=S)N/N=C/c1ccccc1OCCSc1ccc(Cl)cc1	inconclusive [activator, single point]	–
COc1ccc(SC[C@H](Cc2ccccc2)N2CC[C@@H](C(C)(C)C)CCC2=O)cc1	inconclusive [activator, partial curve, poor fit]	–
CCCCNc1nc2c(c(=O)n(Cc3ccc(Cl)c(Cl)c3)c(=O)n2C)n1C	inconclusive [activator, single point]	–
O=C(Nc1cccnc1)c1sc(Nc2ccccc2F)nc1-c1ccccc1	inactive	–
O=C(NCc1ccc(Cl)cc1)c1cnn2ccccc12	inconclusive [activator, full curve]	–
